Measurements published in patent US11685745B2, “Substituted benzoxazole and benzofuran compounds as PDE7 inhibitors” (Dart NeuroScience, LLC, priority 2017, dated 2023).

Biological target: N-terminal truncated recombinant human PDE7B enzyme (Homo sapiens (Human), UniProt Q9NP56)
Assay: biochemical

SMILES | IC50
O=CN1CCN(Cc2cc3cc(Cl)c4c(c3o2)C2(CCCCC2)NC(=O)N4)CC1 [Example 517, 4-{5′-Chloro-7′-oxo-7′,8′-dihydro-6′H-spiro[cyclohexane-1,9′-furo[2,3-f]quinazoline]-2′-ylmethyl}piperazine-1-carbaldehyde] | 10 to 100 nM
O=C1Nc2c(Cl)cc3nc(C(=O)N4CCNCC4)oc3c2C2(CCCCC2)N1 [Example 211, 5-Chloro-2-(piperazine-1-carbonyl)-7,8-dihydro-6H-spiro[[1,3]oxazolo[5,4-f]quinazoline-9,1′-cyclohexane]-7-one] | 10 to 100 nM
COCCOC1CCN(Cc2nc3cc(Cl)c4c(c3o2)C2(CCCCC2)NC(=O)N4)CC1 [Example 156, 5-Chloro-2-{[4-(2-methoxyethoxy)piperidin-1-yl]methyl}-7,8-dihydro-6H-spiro[[1,3]oxazolo[5,4-f]quinazoline-9,1′-cyclohexane]-7-one] | 100 to 1000 nM
COC(=O)C1CCN(Cc2nc3cc(Cl)c4c(c3o2)C2(CCCCC2)NC(=O)N4)CC1 [Example 66, Methyl 1-{5-chloro-7-oxo-7,8-dihydro-6H-spiro[[1,3]oxazolo[5,4-f]quinazoline-9,1′-cyclohexane]-2-ylmethyl}piperidine-4-carboxylate] | 10 to 100 nM
CC(C)N1CCN(C(=O)c2nc3cc(Cl)c4c(c3o2)C2(CCCCC2)NC(=O)N4)CC1 [Example 208, 5-Chloro-2-[4-(propan-2-yl)piperazine-1-carbonyl]-7,8-dihydro-6H-spiro[[1,3]oxazolo[5,4-f]quinazoline-9,1′-cyclohexane]-7-one] | 10 to 100 nM
CN(Cc1ccccn1)Cc1cc2cc(Cl)c3c(c2o1)C1(CCCCC1)NC(=O)N3 [Example 555, 5′-Chloro-2′-{[methyl(pyridin-2-ylmethyl)amino]methyl}-7′,8′-dihydro-6′H-spiro[cyclohexane-1,9′-furo[2,3-f]quinazoline]-7′-one] | 100 to 1000 nM
O=C1Nc2c(Cl)cc3cc(C(=O)N4CCC(O)(c5ccccc5)CC4)oc3c2C2(CCCCC2)N1 [Example 441, 5′-Chloro-2′-(4-hydroxy-4-phenylpiperidine-1-carbonyl)-7′,8′-dihydro-6′H-spiro[cyclohexane-1,9′-furo[2,3-f]quinazoline]-7′-one] | 10 to 100 nM
CC(NCc1nc2cc(Cl)c3c(c2o1)C1(CCCCC1)NC(=O)N3)C1CCCCO1 (stereo not shown) [Example 104, 5-Chloro-2-({[1-(oxan-2-yl)ethyl]amino}methyl)-7,8-dihydro-6H-spiro[[1,3]oxazolo[5,4-f]quinazoline-9,1′-cyclohexane]-7-one] | 10 to 100 nM
COC1CCCN(C(=O)c2cc3cc(Cl)c4c(c3o2)C2(CCCCC2)NC(=O)N4)C1 (stereo not shown) [Example 309, 5′-Chloro-2′-(3-methoxypiperidine-1-carbonyl)-7′,8′-dihydro-6′H-spiro[cyclohexane-1,9′-furo[2,3-f]quinazoline]-7′-one] | 10 to 100 nM
CCN(CC)C(=O)CNC(=O)c1cc2cc(Cl)c3c(c2o1)C1(CCCCC1)NC(=O)N3 [Example 340, 2-{5′-Chloro-7′-oxo-7′,8′-dihydro-6′H-spiro[cyclohexane-1,9′-furo[2,3-f]quinazoline]-2′-ylformamido}-N,N-diethylacetamide] | 10 to 100 nM
Cc1ccc2[nH]c(CN(C)C(=O)c3cc4cc(Cl)c5c(c4o3)C3(CCCCC3)NC(=O)N5)nc2c1 [Example 295, 5′-Chloro-N-methyl-N-[(5-methyl-1H-1,3-benzodiazol-2-yl)methyl]-7′-oxo-7′,8′-dihydro-6′H-spiro[cyclohexane-1,9′-furo[2,3-f]quinazoline]-2′-carboxamide] | 10 to 100 nM
O=C1Nc2c(Cl)cc3cc(C(=O)NCc4cccc(F)c4)oc3c2C2(CCCCC2)N1 [Example 437, 5′-Chloro-N-[(3-fluorophenyl)methyl]-7′-oxo-7′,8′-dihydro-6′H-spiro[cyclohexane-1,9′-furo[2,3-f]quinazoline]-2′-carboxamide] | 100 to 1000 nM
CC(C)N1CCN(Cc2cc3cc(Cl)c4c(c3o2)C2(CCCCC2)NC(=O)N4)CC1=O [Example 536, 5′-Chloro-2′-{[3-oxo-4-(propan-2-yl)piperazin-1-yl]methyl}-7′,8′-dihydro-6′H-spiro[cyclohexane-1,9′-furo[2,3-f]quinazoline]-7′-one] | 100 to 1000 nM
O=C1Nc2c(Cl)cc3nc(CN4CC5(CCOCC5)C4)oc3c2C2(CCCCC2)N1 [Example 76, 5-Chloro-2-{7-oxa-2-azaspiro[3.5]nonan-2-ylmethyl}-7,8-dihydro-6H-spiro[[1,3]oxazolo[5,4-f]quinazoline-9,1′-cyclohexane]-7-one] | 10 to 100 nM
O=C1Nc2c(Cl)cc3nc(CNCc4ncco4)oc3c2C2(CCCCC2)N1 [Example 170, 5-Chloro-2-{[(1,3-oxazol-2-ylmethyl)amino]methyl}-7,8-dihydro-6H-spiro[[1,3]oxazolo[5,4-f]quinazoline-9,1′-cyclohexane]-7-one] | 10 to 100 nM
COC(=O)c1nc2cc(Cl)c3c(c2o1)C1(CCCCC1)NC(=O)N3 [Example 1, Methyl 5′-chloro-7′-oxo-7′,8′-dihydro-6′H-spiro[cyclohexane-1,9′-oxazolo[5,4-f]quinazoline]-2′-carboxylate] | 100 to 1000 nM

SMILES | IC50
O=C1Nc2c(Cl)cc3cc(CNCCn4cccn4)oc3c2C2(CCCCC2)N1 [Example 475, 5′-Chloro-2′-({[2-(1H-pyrazol-1-yl)ethyl]amino}methyl)-7′,8′-dihydro-6′H-spiro[cyclohexane-1,9′-furo[2,3-f]quinazoline]-7′-one] | 10 to 100 nM
O=C1Nc2c(Cl)cc3cc(C(=O)N4CCN5CCC[C@H]5C4)oc3c2C2(CCCCC2)N1 [Example 265, 2′-[(8aS)-octahydropyrrolo[1,2-a]piperazine-2-carbonyl]-5′-chloro-7′,8′-dihydro-6′H-spiro[cyclohexane-1,9′-furo[2,3-f]quinazoline]-7′-one] | 10 to 100 nM
CC(C)(C)OC(=O)N1CCCCC1CNCc1nc2cc(Cl)c3c(c2o1)C1(CCCCC1)NC(=O)N3 (stereo not shown) [Example 52, Tert-Butyl 2-[({5-chloro-7-oxo-7,8-dihydro-6H-spiro[[1,3]oxazolo[5,4-f]quinazoline-9,1′-cyclohexane]-2-ylmethyl}amino)methyl]piperidine-1-carboxylate] | 10 to 100 nM
N#CC1CN(C(=O)c2cc3cc(Cl)c4c(c3o2)C2(CCCCC2)NC(=O)N4)C1 [Example 318, 1-({5′-Chloro-7′-oxo-7′,8′-dihydro-6′H-spiro[cyclohexane-1,9′-furo[2,3-f]quinazoline]-2′-yl}carbonyl)azetidine-3-carbonitrile] | 100 to 1000 nM
O=C1Nc2c(Cl)cc3nc(CN4C[C@@H]5C[C@H]4CO5)oc3c2C2(CCCCC2)N1 [Example 110, 5-Chloro-2-[(1S,4S)-2-oxa-5-azabicyclo[2.2.1]heptan-5-ylmethyl]-7,8-dihydro-6H-spiro[[1,3]oxazolo[5,4-f]quinazoline-9,1′-cyclohexane]-7-one] | 10 to 100 nM
CC(C)n1cnnc1CNCc1cc2cc(Cl)c3c(c2o1)C1(CCCCC1)NC(=O)N3 [Example 520, 5′-Chloro-2′-[({[4-(propan-2-yl)-4H-1,2,4-triazol-3-yl]methyl}amino)methyl]-7′,8′-dihydro-6′H-spiro[cyclohexane-1,9′-furo[2,3-f]quinazoline]-7′-one] | 10 to 100 nM
CCOCC1(CNC(=O)c2cc3cc(Cl)c4c(c3o2)C2(CCCCC2)NC(=O)N4)CC1 [Example 361, 5′-Chloro-N-{[1-(ethoxymethyl)cyclopropyl]methyl}-7′-oxo-7′,8′-dihydro-6′H-spiro[cyclohexane-1,9′-furo[2,3-f]quinazoline]-2′-carboxamide] | 10 to 100 nM
CCCNCc1cc2cc(Cl)c3c(c2o1)C1(CCCCC1)NC(=O)N3 [Example 540, 5′-Chloro-2′-[(propylamino)methyl]-7′,8′-dihydro-6′H-spiro[cyclohexane-1,9′-furo[2,3-f]quinazoline]-7′-one] | 100 to 1000 nM
O=C1Nc2c(Cl)cc3nc(CNCC(F)(F)CO)oc3c2C2(CCCCC2)N1 [Example 164, 5-Chloro-2-{[(2,2-difluoro-3-hydroxypropyl)amino]methyl}-7,8-dihydro-6H-spiro[[1,3]oxazolo[5,4-f]quinazoline-9,1′-cyclohexane]-7-one] | 10 to 100 nM
CO[C@H]1CC[C@H](NCc2nc3cc(Cl)c4c(c3o2)C2(CCCCC2)NC(=O)N4)CC1 [Example 108, 5-Chloro-2-({[(1R,4R)-4-methoxycyclohexyl]amino}methyl)-7,8-dihydro-6H-spiro[[1,3]oxazolo[5,4-f]quinazoline-9,1′-cyclohexane]-7-one] | 100 to 1000 nM
CCC(CC)NC(=O)c1cc2cc(Cl)c3c(c2o1)C1(CCCCC1)NC(=O)N3 [Example 421, 5′-Chloro-7′-oxo-N-(pentan-3-yl)-7′,8′-dihydro-6′H-spiro[cyclohexane-1,9′-furo[2,3-f]quinazoline]-2′-carboxamide] | 10 to 100 nM
COc1ccc(CNC(=O)c2cc3cc(Cl)c4c(c3o2)C2(CCCCC2)NC(=O)N4)c(F)c1F [Example 302, 5′-Chloro-N-[(2,3-difluoro-4-methoxyphenyl)methyl]-7′-oxo-7′,8′-dihydro-6′H-spiro[cyclohexane-1,9′-furo[2,3-f]quinazoline]-2′-carboxamide] | 100 to 1000 nM
O=C1Nc2c(Cl)cc3cc(CN4CCN(Cc5cccnc5)CC4)oc3c2C2(CCCCC2)N1 [Example 532, 5′-Chloro-2′-{[4-(pyridin-3-ylmethyl)piperazin-1-yl]methyl}-7′,8′-dihydro-6′H-spiro[cyclohexane-1,9′-furo[2,3-f]quinazoline]-7′-one] | 100 to 1000 nM
COC[C@@H]1CCN(C(=O)c2nc3cc(Cl)c4c(c3o2)C2(CCCCC2)NC(=O)N4)C1 [Example 203, 5-Chloro-2-[(3R)-3-(methoxymethyl)pyrrolidine-1-carbonyl]-7,8-dihydro-6H-spiro[[1,3]oxazolo[5,4-f]quinazoline-9,1′-cyclohexane]-7-one] | 10 to 100 nM
CC(C)N(Cc1cc2cc(Cl)c3c(c2o1)C1(CCCCC1)NC(=O)N3)CC1CCC(=O)N1 (stereo not shown) [Example 490, 5′-Chloro-2′-({[(5-oxopyrrolidin-2-yl)methyl](propan-2-yl)amino}methyl)-7′,8′-dihydro-6′H-spiro[cyclohexane-1,9′-furo[2,3-f]quinazoline]-7′-one] | 100 to 1000 nM
